# In article PMC4336329 (PLoS ONE, 2015):
# Screen size: about 310,000 compounds; about 2,200 (0.71%) showed an effect of 50% or more. The effect is printed as a negative number. Some of the results follow.
# Biological target: human ether-à-go-go-related gene (hERG) potassium channel (human, UniProt Q12809)
# Assay: primary screen, population patch clamp on CHO cells stably expressing hERG
# human ether-à-go-go-related gene (hERG) potassium channel, sequence (Q12809 whole entry, looked up): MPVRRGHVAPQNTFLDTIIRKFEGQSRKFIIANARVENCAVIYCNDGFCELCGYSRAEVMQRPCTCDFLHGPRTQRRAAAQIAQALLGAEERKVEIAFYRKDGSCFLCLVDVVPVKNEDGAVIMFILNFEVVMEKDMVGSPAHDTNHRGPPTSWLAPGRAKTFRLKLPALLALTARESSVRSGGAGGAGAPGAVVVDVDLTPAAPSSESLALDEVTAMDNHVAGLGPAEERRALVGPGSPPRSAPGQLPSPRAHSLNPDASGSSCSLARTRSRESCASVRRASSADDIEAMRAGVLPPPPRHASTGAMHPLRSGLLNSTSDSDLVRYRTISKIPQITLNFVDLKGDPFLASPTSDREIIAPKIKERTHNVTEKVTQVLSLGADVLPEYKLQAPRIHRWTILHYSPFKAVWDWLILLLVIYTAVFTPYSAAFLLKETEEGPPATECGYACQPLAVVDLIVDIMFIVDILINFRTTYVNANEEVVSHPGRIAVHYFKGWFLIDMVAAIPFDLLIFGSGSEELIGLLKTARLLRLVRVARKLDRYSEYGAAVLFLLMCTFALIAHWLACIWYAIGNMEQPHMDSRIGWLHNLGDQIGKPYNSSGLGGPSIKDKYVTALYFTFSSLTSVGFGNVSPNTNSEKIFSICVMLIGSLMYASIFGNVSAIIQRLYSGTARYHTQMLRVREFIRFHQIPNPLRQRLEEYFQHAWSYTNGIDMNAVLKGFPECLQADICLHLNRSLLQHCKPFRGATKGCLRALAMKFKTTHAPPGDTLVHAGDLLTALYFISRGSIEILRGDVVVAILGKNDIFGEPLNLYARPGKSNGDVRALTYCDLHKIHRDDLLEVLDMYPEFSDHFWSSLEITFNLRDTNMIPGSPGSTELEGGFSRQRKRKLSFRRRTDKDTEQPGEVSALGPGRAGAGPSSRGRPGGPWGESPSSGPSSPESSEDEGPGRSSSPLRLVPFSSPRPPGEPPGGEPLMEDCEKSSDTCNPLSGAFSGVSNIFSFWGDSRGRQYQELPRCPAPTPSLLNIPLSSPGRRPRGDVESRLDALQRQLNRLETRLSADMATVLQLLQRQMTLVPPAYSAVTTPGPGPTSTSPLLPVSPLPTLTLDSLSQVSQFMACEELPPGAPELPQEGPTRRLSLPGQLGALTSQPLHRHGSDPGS
row,SMILES,"hERG current change (%, negative = inhibition) at 1uM"
1,CCN1C(=O)/C(=C/c2cnn(CC)c2C)SC1=S,13.2%
2,COc1ccc(C(=O)N/N=C(/C)c2cccc(NC(=O)C(F)(F)F)c2)cc1,13.6%
3,O=C(COc1ccccc1Cl)NCCNC(=O)c1cnccn1,7.9%
4,O=C(NCc1cccc(Cl)c1)c1ccc(CS(=O)Cc2ccc(Cl)cc2)o1 (stereo not drawn),8.53%
5,COc1ccc(-c2cc(C)no2)cc1S(=O)(=O)N1CCOc2ccc(C)cc21,15.2%
6,CCOc1cc2[nH]c(=O)n(CCC(=O)N3CCN(c4ccccc4OC)CC3)c(=O)c2cc1OCC,8.01%
7,Cc1cccc(NC(=O)N[C@@H](C)C(=O)O)c1,-2.51%
8,N#Cc1ccc(NC(=O)Cn2cnc(S(=O)(=O)N3CCOCC3)c2)cc1,13.1%
9,Cc1ccc(OCC(=O)Nc2cccnc2Cl)cc1C,10.7%
10,CCSC(C)CC1C/C(=N/O)c2c(C)noc2C1 (stereo not drawn),-48.9%
11,CC(O)c1nc2ccccc2n1CC(=O)Nc1ccc2c(c1)OCCO2 (stereo not drawn),14.1%
12,C=C1CCN([C@@H](CC(C)C)C(=O)NCc2ccc(OC)cc2)S(=O)(=O)c2ccccc21,-13.8%
13,COc1cc(SC)ccc1C(=O)N1CCN(Cc2ccc3c(c2)OCO3)CC1,6.05%
14,COc1ccc(CCNC(=O)Cn2nnc(-c3ccc(N(C)C)cc3)n2)cc1OC,7.82%
15,CS(=O)(=O)c1ccc(Cl)c(C(=O)Nc2ccc3nc(N4CCOCC4)sc3c2)c1,9.77%
16,CC1=CN2C(=NC(=O)CC2(C)C(=O)N(CC(=O)NC2CCCC2)c2ccccc2C)C=C1 (stereo not drawn),12.4%
17,CN(Cc1nccn1C)C(=O)C1CCC(=O)N(CCc2ccc(Cl)cc2)C1 (stereo not drawn),-23.4%
18,COc1ccc(C(=O)CSc2n[nH]c(=O)n2Cc2ccco2)cc1,1.38%
19,CCn1nnnc1SCC(=O)c1cccc(OC)c1,11.2%
20,Cc1c(C(=O)O)sc2ncn(C)c(=O)c12,10.7%
21,CCCCCCCCC(=O)NCCOc1ccc(OC)cc1,-6.71%
22,CC(=O)Nc1nc(CC(C)C)cc(-c2ccccc2)c1C#N,12.2%

row,SMILES,"hERG current change (%, negative = inhibition) at 1uM"
1,CC(C)(O)C#Cc1ccc(C(=O)N2CCN(C(=O)c3ccco3)CC2)cc1,11%
2,CCN1CCCC1CNC(=O)c1cc(S(=O)(=O)N(C)C)ccc1Cl (stereo not drawn),13.5%
3,COc1ccccc1NC(=O)/C(=C/c1ccncc1)NC(=O)c1ccccc1,10.8%
4,CCOc1cc(CNCCSc2nnnn2C)cc(Br)c1OCc1ccccc1F.Cl,13.3%
5,Cc1nc(SCc2ccc(O)c([N+](=O)[O-])c2)n[nH]1,15.1%
6,COc1cc(OC)cc(C(=O)NCCCN2CCN(CCCNC(=O)c3cc(OC)cc(OC)c3)CC2)c1,-18.8%
7,CSCCC(NC(=O)c1ccccc1Cl)C(=O)Nc1ccc(C)c(S(=O)(=O)N2CCOCC2)c1 (stereo not drawn),3.25%
8,CCCCNC(=O)COC(=O)c1cc(F)c(F)cc1Cl,13.8%
9,CCn1nc(C)c(CN2CCC(C(=O)Nc3cccc(-c4cccc(Cl)c4)c3)CC2)c1C,7.37%
10,CCCCN(CC)C(=O)Cn1cnc2ccc(S(=O)(=O)N3CCC(C)CC3)cc2c1=O,-5.79%
11,O=C(O)c1ccccc1NS(=O)(=O)c1ccccc1C(F)(F)F,5.14%
12,Cc1cc(C)c2nc(N3CCC(C(=O)NCCN4CCOCC4)CC3)sc2c1,1.2%
13,N#Cc1ccc(C(=O)Nc2ccn(-c3ccccc3)n2)cc1,-0.704%
14,Cc1ccc(S(=O)(=O)N(C)C)cc1NC(=S)NNC(=O)C1CC1,-9.82%
15,Cc1ccc2nc(C)c(C(=O)N/N=C/c3cccc([N+](=O)[O-])c3)cc2c1,-3.87%
16,CCc1cc(C(=O)c2ccc(OC)cc2)c(NC(=O)CCC(=O)O)s1,11.4%
17,O=C(Nc1ccc2c(c1)CCC2)c1cc2ccccc2o1,13.8%
18,O=C(N/N=C1/CC2CCC1C2)c1cc2ccccc2cc1O (stereo not drawn),17.2%
19,CCN1CCN(C(c2ccccc2)c2nnnn2Cc2ccccc2)CC1.Cl (stereo not drawn),-2.83%
20,COc1cccc(NC(=O)CSCc2n[nH]c(=O)[nH]2)c1,11.8%
21,Cc1c(C(=O)N2CCOCC2)sc(NC(=O)c2ccc3c(c2)OCO3)c1C#N,13.7%
22,O=C(COc1ccc(S(=O)(=O)N2CCCC2)cc1[N+](=O)[O-])N1CCCC1,7.43%

row,SMILES,"hERG current change (%, negative = inhibition) at 1uM"
1,CCCC1(C(=O)OCC)NC(c2ccc(OC)cc2OC)C2C(=O)N(c3ccccc3)C(=O)C21 (stereo not drawn),7.43%
2,Cc1csc(NC(=O)c2ccc(C)o2)n1,5.73%
3,O=C(N/C(=C\c1ccco1)C(=O)N1CCCC1)c1cccs1,1.3%
4,CC(=O)c1ccc(NC(=O)CN2C(=O)NC(C)(c3ccc4c(c3)OCCO4)C2=O)cc1 (stereo not drawn),10.1%
5,Cc1c(NC(=O)CSc2nnc(-c3ccco3)n2-c2ccccc2)c(=O)n(-c2ccccc2)n1C,3.63%
6,COc1ccc(C)cc1NC(=O)C(Sc1ccccc1)c1ccccc1 (stereo not drawn),12%
7,Cc1ccc(C)c(CN2CCC(CNC(=O)CCc3nnc4ccc(N5CCCCC5)nn34)CC2)c1,8.3%
8,CC(=O)NC1Sc2ccccc2N=C1c1ccccc1 (stereo not drawn),9.79%
9,COC(=O)C1C(=O)OC(C)(C)C1C(C)C(=O)c1ccc(C)cc1C (stereo not drawn),6.78%
10,O=c1cc(CN2CCN(c3ccccc3)CC2)c2c(ccc3ccccc32)o1,-26.3%
11,Cc1ccc(NC(=S)c2ccncc2)cc1,11.6%
12,COc1ccc(Cl)cc1NC(=O)C/C(C)=N/NC(=O)c1ccccc1[N+](=O)[O-],8.81%
13,NC(=O)COc1ccc(-n2cnnn2)cc1,15.5%
14,Cc1cccc(C(=O)c2c(N)sc3c2CCC(C)C3)c1 (stereo not drawn),9.12%
15,COc1ccc(CNC(=O)C(=O)NCC(c2ccco2)N2CCOCC2)cc1 (stereo not drawn),2.42%
16,COc1ccc(C(=O)NCC(=O)OCc2nc(N)nc(Nc3ccccc3C)n2)cc1,-15.5%
17,CCCN1CCN(CCCNC(=O)c2ccc(CS(=O)c3ccc(OC)cc3)o2)CC1 (stereo not drawn),5.86%
18,COCc1ccc([C@@H]2C[C@H]3CN(Cc4cccc(Cl)c4)C(=O)[C@]34CCCN24)o1,-2.14%
19,CN(N)c1ccc2c(C(F)(F)F)cc(C(F)(F)F)nc2n1,12.7%
20,COc1cccc(CNC(=O)CN2C(=O)CSc3ccc(S(=O)(=O)N4CCCCC4)cc32)c1,4.94%
21,COc1ccc(CC2(CO)CCN(Cc3ccc(OC(F)(F)F)cc3)CC2)cc1,-57.5%
22,Cc1ccccc1C(=O)NCCCc1ccccc1,14.6%

row,SMILES,"hERG current change (%, negative = inhibition) at 1uM"
1,CC(O)CCC(=O)NNC1CC(=O)N(c2ccccc2)C1=O (stereo not drawn),11.3%
2,CC(=O)c1c(C)[nH]c(C(=O)N2CCN(c3ncccn3)CC2)c1C,9.11%
3,Cc1cccn2c(=O)c3cc(C(=O)NCCN4CCOCC4)c(=N)n(Cc4ccc(F)cc4)c3nc12,-13.3%
4,CC1=CC(=C(C#N)c2nc3ccccc3s2)C=C(C)N1c1ccc(F)cc1F,21.1%
5,CCN1C(=O)CC(N2CCN(c3ccc(Cl)cc3)CC2)C1=O (stereo not drawn),2.82%
6,O=C(CN1C(=O)COc2ccccc21)N(Cc1cccnc1)Cc1cccc(F)c1,-8.39%
7,O=[N+]([O-])c1ccc(N/N=C/c2ccccc2)cc1,12.5%
8,Cc1ccc(NC(=O)c2cc(NC(=O)C3CC=CCC3C(=O)O)ccc2N2CCOCC2)cc1Cl (stereo not drawn),5.76%
9,OCCNc1nc(Nc2ccccc2C(F)(F)F)nc(N2CCCC2)n1,-3.26%
10,O=C(Nc1nccs1)c1cccc(NC(=O)c2ccco2)c1,4.79%
11,Cc1ccc(C(C)NC(=O)c2cc(C)oc2C)cc1 (stereo not drawn),-11.5%
12,CCCC(=O)NC(c1cccs1)c1cc([N+](=O)[O-])c2cccnc2c1O (stereo not drawn),3.68%
13,CC(C)COC(=O)n1c(SCC(N)=O)nc2ccccc21,9.69%
14,CNCC(O)C(O)C(O)C(O)CO (stereo not drawn),7.67%
15,Cc1cccnc1NC(=O)CCc1nnc2ccc(N3CCC4(CC3)OCCO4)nn12,9.8%
16,CCN(CC(=O)Nc1c(F)cccc1F)C(=O)c1ccc(N2CCCC2)c([N+](=O)[O-])c1,5.73%
17,C=C(C)c1cccc(C(C)(C)NC(=O)N2CCC(C(N)=O)CC2)c1,6.76%
18,CCN(C(=O)c1ccco1)c1nc(-c2ccc(OC)cc2)cs1,9.4%
19,Cc1ccc(NC(=O)CCS(=O)(=O)c2cccc3nonc23)c(Cl)c1,11.5%
20,Cc1ccc(NC(=O)Cn2ccsc2=N)cc1S(=O)(=O)N(C)C.Cl,2.73%
21,CC(OC(=O)c1ccccc1NCCO)C(=O)Nc1ccc(S(=O)(=O)N2CCOCC2)cc1 (stereo not drawn),11.6%
